# Reference: the supplement of paper PMC4604168 (melanoma cell lines)
# Some of the results follow. Repeats are few or missing, and single values can be far off.
# How the values were obtained:
# Experiment in all cases: cell count relative to DMSO control; melanoma cells; higher = more viable cells
# Conditions in all cases: library dose: low library concentration; 72 h
# [1] = test system: MZ2-MEL
# [2] = test system: MeWo
# [3] = test system: RPMI7951
# [4] = test system: RVH-421
# [5] = test system: SkMel28
# [6] = test system: SkMel30
# [7] = test system: SkMel5
# [8] = test system: UACC257
# [9] = test system: UACC62
# [10] = test system: WM115
# [11] = test system: WM1716
# [12] = test system: WM1745
# [13] = test system: WM3526
# [14] = test system: WM3619
# [15] = test system: WM451Lu
# 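Note: cell number obtained by counting DAPI-stained nuclei in high-throughput microscope images with image analysis software, screen run in 1,536-well plates.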
Compound,cell count [1],cell count [2],cell count [3],cell count [4],cell count [5],cell count [6],cell count [7],cell count [8],cell count [9],cell count [10],cell count [11],cell count [12],cell count [13],cell count [14],cell count [15]
"COc1cc2c(Oc3ccc4[nH]c(C)cc4c3F)ncnc2cc1OCCCN1CCCC1 [cediranib] + CC(C)CCN1c2nc(Nc3cc(F)c(O)c(F)c3)ncc2N(C)C(=O)C1C [BID1870] (first compound 0.4 µM, partner dose 0.2 µM)",95.1%,86.6%,111%,85.2%,80.1%,99.4%,103%,82.6%,82.8%,103%,88.5%,83.6%,107%,125%,120%
"Cc1ccc(NC(=O)c2cccc(N(C)C)c2)cc1NC(=O)c1ccc(O)cc1 + CC(C)CCN1c2nc(Nc3cc(F)c(O)c(F)c3)ncc2N(C)C(=O)C1C [BID1870] (first compound 2 µM, partner dose 0.2 µM)",84.9%,86.9%,95.3%,90.7%,89.3%,72.2%,91.3%,81.9%,77.4%,96.7%,92.7%,104%,93.1%,92.1%,127%
"CC(C)(C)c1cnc(CSc2cnc(NC(=O)C3CCNCC3)s2)o1 + COC(=O)c1sccc1S(=O)(=O)Nc1ccc(Nc2ccccc2)cc1OC [GSK0660] (first compound 0.01 µM, partner dose 1 µM)",96.7%,103%,105%,99%,91.4%,95.8%,87%,89.6%,79.9%,109%,100%,96.7%,98.5%,101%,118%
"CN(NC(=O)CC(=O)NN(C)C(=S)c1ccccc1)C(=S)c1ccccc1 + COc1cc2ncnc(Nc3ccc(Oc4ccccc4)cc3)c2cc1OC [SrcI1] (first compound 0.006 µM, partner dose 2 µM)",92.4%,79.2%,107%,98.6%,76.8%,102%,94.8%,83.9%,100%,86%,73.7%,50.4%,101%,22.9%,106%
"Cc1ccc(NC(=O)c2cccc(N(C)C)c2)cc1NC(=O)c1ccc(O)cc1 + O=C(Nc1ccccc1)c1cc([N+](=O)[O-])ccc1Cl [GW9662] (first compound 2 µM, partner dose 2 µM)",80.9%,87.3%,87.3%,105%,82.5%,69.3%,93.2%,78.5%,91.7%,95.3%,110%,80.3%,84.7%,84.8%,74.2%
"CN(NC(=O)CC(=O)NN(C)C(=S)c1ccccc1)C(=S)c1ccccc1 + CCc1ccc(CCOc2ccc(CC3SC(=O)NC3=O)cc2)nc1 [pioglitazone] (first compound 0.006 µM, partner dose 2 µM)",103%,97.5%,108%,103%,85.4%,94.1%,95.3%,107%,78.2%,89.3%,78%,57.5%,120%,70.5%,88.9%
"CN(NC(=O)CC(=O)NN(C)C(=S)c1ccccc1)C(=S)c1ccccc1 + COC(=O)c1sccc1S(=O)(=O)Nc1ccc(Nc2ccccc2)cc1OC [GSK0660] (first compound 0.006 µM, partner dose 1 µM)",96.4%,87.5%,104%,87.8%,102%,85.6%,84.4%,77.2%,104%,81.6%,81.4%,44.4%,103%,36.4%,108%
"Cc1ccc(NC(=O)c2cccc(N(C)C)c2)cc1NC(=O)c1ccc(O)cc1 + N#Cc1c(O)c2c(-c3ccc(-c4ccccc4O)cc3)csc2[nH]c1=O [A769662] (first compound 2 µM, partner dose 2 µM)",74.1%,87.6%,86.6%,103%,89.8%,80.7%,89.4%,110%,91.9%,104%,105%,93.1%,77%,98%,105%
"CCc1ccc(CCOc2ccc(CC3SC(=O)NC3=O)cc2)nc1 (stereo not given) [pioglitazone] + O=C(Nc1ccccc1)c1cc([N+](=O)[O-])ccc1Cl [GW9662] (first compound 2 µM, partner dose 2 µM)",95.3%,100%,111%,102%,88.7%,102%,98.1%,91.5%,104%,94.3%,137%,94.2%,102%,85.6%,76.6%
